Results on 2 substances are retold here after paper PMC2788703.

Amino acid sequences for entries named in this document (tags omitted). A change or cut given only in a name is not applied to a line headed by its entry. Residues count along the entry.
UniProt Q9Y4L5: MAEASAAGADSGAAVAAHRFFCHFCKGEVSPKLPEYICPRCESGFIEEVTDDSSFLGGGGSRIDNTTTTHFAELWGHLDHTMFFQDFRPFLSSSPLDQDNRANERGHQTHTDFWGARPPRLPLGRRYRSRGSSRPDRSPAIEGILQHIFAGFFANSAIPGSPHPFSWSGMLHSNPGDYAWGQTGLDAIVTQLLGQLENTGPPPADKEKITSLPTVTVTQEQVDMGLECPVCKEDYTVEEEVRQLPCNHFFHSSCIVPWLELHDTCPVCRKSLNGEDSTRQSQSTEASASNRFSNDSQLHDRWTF
HA-BCA2ΔRING (1–227 aa), RING domain deleted mutant: residues 1-227 of Q9Y4L5
HA-BCA2ΔC (1–147 aa), C-terminal truncation mutant: residues 1-147 of Q9Y4L5
HA-BCA2ΔN (148–305 aa), N-terminal truncation mutant: residues 148-304 of Q9Y4L5
UniProt Q10589, residues 1-161: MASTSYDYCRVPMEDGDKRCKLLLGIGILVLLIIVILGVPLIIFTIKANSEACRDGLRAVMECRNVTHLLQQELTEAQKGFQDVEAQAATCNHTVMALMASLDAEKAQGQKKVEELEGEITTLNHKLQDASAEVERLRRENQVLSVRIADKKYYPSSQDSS

The target in assay [1] is GST-BCA2 (recombinant GST-tagged BCA2) (human) (UniProt Q9Y4L5). Briefly: pull-down; glutathione beads coupled with purified GST-BCA2 incubated with lysates of 293T cells expressing Myc-tetherin (FL or Δ1–20); immunoblot with Myc antibody; only the target purified. In general terms: In western blotting, separated proteins are transferred to a membrane and probed.
Assay [2] has as its target N-terminal HA-tagged BCA2 (human) (UniProt Q9Y4L5). Briefly: co-IP; 293T cells co-expressing Myc-tetherin (FL or Δ1–20) and HA-BCA2 (FL or deletion mutants); lysates incubated with anti-HA affinity gel; immunoblot with HA or Myc antibodies.
Assay [3] has as its target HA-BCA2ΔRING (1–227 aa), RING domain deleted mutant (human) (UniProt Q9Y4L5). The description is as above.
The target of assay [4] is HA-BCA2ΔC (1–147 aa), C-terminal truncation mutant (human) (UniProt Q9Y4L5). Described as above.
The target of assay [5] is HA-BCA2ΔN (148–305 aa), N-terminal truncation mutant (human) (UniProt Q9Y4L5). The assay is described as above.
The target of assay [6] is BCA2 (initial screening test, construct not stated) (human) (UniProt Q9Y4L5). In words: co-IP + pull-down; initial screening test of approximately 60 Rab family proteins against tetherin or HIV-1 Gag; data not shown.

These are yes or no findings as the source states them, for the method shown. Binding seen in cells or lysates may run through a third protein. Some binding calls cover weakened binding; strength is not graded here.

Regarding “N-terminal Myc-epitope-tagged wild-type tetherin (from UniProt Q10589 1-161)”, the binding entry in assay [1] is on record as “binds”; in assay [2] it was “binds”; in assay [3], “binds”; in assay [4] it was “no binding”; in assay [5], “binds”.

Turning to “tetherin (initial screening test, construct not stated) (from UniProt Q10589 1-161)”, in assay [6], the binding result is given as “binds”.
